Sequences and labels used below:
B1: chr8:38210266:38210373:+|CDS|ENSG00000156735|unk|total|mutant (ssRNA)
RNA: GGGAGUUCUACAGUCCGACGAUCAAAAAUCAUACAUGUGCUGGAGAAGGUCCAGUAUCUUGAACAAGAAGCCGAAGAAUUUGCCGGAAAAAAGACAGACAAAGCAUACUGGCUUCUGGAAGAAAUGCUAACCAAGGAACUUUUCAACAGAGGAUUGAGCAUCA
B2: chr1:179105649:179105771:-|3pUTR|ENSG00000143322|msi1|FALSE|bound_elsewhere (ssRNA)
RNA: GGGAGUUCUACAGUCCGACGAUCAGAAAGGAAACCUUGAUUCUUACCAUUGCUGCUCCAAAGGAGGCCCAGGUUAAGAGGAUUAGAGGAGACACGCGGUGCUGGGCAUUCCUGGCAGGUGUUGGGUGAUCCCCGCAGUAUGUCCAACAGAGGAUUGAGCAUCA
B3: ENSG00000070961:be:win_901|CDS|ENSG00000070961|bound_else_gene|NA|bound_elsewhere_windowed (ssRNA)
RNA: GGGAGUUCUACAGUCCGACGAUCAAAGAUGAGAAGAAAAAGGAAAAGAAAAAUAAGAAACAAGAUGGAGCUAUUGAGAAUCGCAACAAAGCAAAAGCCCAGGAUGGUGCAGCCAUGGAAAUGCAGCCAUUGAAGAGUGAAGAACAACAGAGGAUUGAGCAUCA
B4: chr5:141515046:141515147:-|3pUTR|ENSG00000131504|msi1_unk|total|mutant (ssRNA)
RNA: GGGAGUUCUACAGUCCGACGAUCAAAAAGAGAGAGAGAGAGAGGUGUGAGGGACAAAAUGCAAACCUAUUUCCCUUGCCUCACCGGCUUCUGGGAUGUCAUCACCUCCAGUUUGUUGGUUUUGUUUCCAACUGUUAAUAAAGCCAACAGAGGAUUGAGCAUCA
B5: chr1:173734013:173734119:+|CDS|ENSG00000076321|unk|FALSE|unique (ssRNA)
RNA: GGGAGUUCUACAGUCCGACGAUCCAUUGACGAGAGGGCUAUGGAAUUACUGAUUGACUUUGCGUAUACCUCCCAGAUAACAGUAGAAGAGGGCAAUGUUCAGACUCUUCUGCCAGCUGCUUGCCUCCUCCAGCUGGCAGAAAUCAACAGAGGAUUGAGCAUCA
B6: chr1:152033651:152033752:-|CDS|ENSG00000163191|unk|FALSE|unique (ssRNA)
RNA: GGGAGUUCUACAGUCCGACGAUCGGAUGGUUAUAACUACACUCUCUCCAAGACAGAGUUCCUAAGCUUCAUGAAUACAGAACUAGCUGCCUUCACAAAGGUACUGGUCCCUGUCUCCCCCACUUCCCCAAACUACCCACAACACAACAGAGGAUUGAGCAUCA
B7: chr6:75950561:75951094:-|CDS|ENSG00000112706|control|control|control (ssRNA)
RNA: GGGAGUUCUACAGUCCGACGAUCAGCUUUACAGUAUAUCACCACUAGUUCUAUGACCAUUGCCCCCAAGGGCCGAGAGCUGGUAGUGUUCUUCAGUCUGCGUGUUGCUAACAUGGCCUUCUCCAACGACCUGUUCAACAAGAGCAACAGAGGAUUGAGCAUCA
B8: chr21:32314052:32314153:-|3pUTR|ENSG00000142207|msi1|total|mutant (ssRNA)
RNA: GGGAGUUCUACAGUCCGACGAUCCAUCUCAAAAAAAUAAAAAAAUAAAGUUUGUUUUUCUAUAAAAAGUCAUAACAAAGUAUCCGUAUGACUUUUUGAAUAAGUUAAUUUCUGCCAGUGUUUAAUUAUUUUAUUAAAGAAAAGCAACAGAGGAUUGAGCAUCA
B9: chr15:52550718:52550819:-|3pUTR|ENSG00000128989|msi1|total|mutant (ssRNA)
RNA: GGGAGUUCUACAGUCCGACGAUCUUUAUAUAAACUUUUUAAAUGCCGAAACUUUUUACUUCCACACUCAGUUUUGGAGACCCCCGAAUAAAAGGCUUCAAUACUCUGCAUUCCAUGCCCUCUGCCACCUGCUUUUUUUUCCCCCAACAGAGGAUUGAGCAUCA
B10: chr7:6162096:6162197:-|3pUTR|ENSG00000008256|msi1|FALSE|unique (ssRNA)
RNA: GGGAGUUCUACAGUCCGACGAUCGUCACAGAACAUUUUGGGGCAGUUUAAUGUGGUACCAAACUGAAAAUAGGAGCUAUUUAUAGAUGGAGCAGCACUUAGUGCUUCAUAGAAAGCAAUGCCUAUUUUUAAAGUUACAAACGCCAACAGAGGAUUGAGCAUCA
B11: ENSG00000213799:stop:overlap|stop_codon|ENSG00000213799|stop_codon|NA|stop_codon (ssRNA)
RNA: GGGAGUUCUACAGUCCGACGAUCUUUUUAAUCGAAAAGCAAAACUUGCACGUCAUCAUAGAAUUCAUACUGGAAAGAAACAUUAGAAAUAUGAAGAAUGUGACAAAGUUUACAGUUGUAAAUCAAGUCUUGAAAGACAGGAGACAACAGAGGAUUGAGCAUCA
B12: chrX:141908562:141908663:+|CDS|ENSG00000155495|unk|total|mutant (ssRNA)
RNA: GGGAGUUCUACAGUCCGACGAUCUCCUCGUUACGAAUUCCUGUGGGGUCCAAGAGCUCAUUCAGAAGUCAUUAAGAGGAAAGCCGCCGAGUUUUUGGCCAUGCUAAAGAAUACCGUCCCUAUUACCUUUCCAUCCUCUUACAACAACAGAGGAUUGAGCAUCA
B13: chr16:70160055:70160156:+|3pUTR|ENSG00000090857|msi1|FALSE|unique (ssRNA)
RNA: GGGAGUUCUACAGUCCGACGAUCUUGUGCUCACCACGAAGGAUGGUCUCUGCCUUCUCUUGUCGGUGUAUGCCAUCUGAACCUAGGAACACAAAGUAUAUUGGCCUCAAACGGAGACCCAGGGUUGCCAGUUUUCCGUGGGCCCAACAGAGGAUUGAGCAUCA
B14: ENSG00000158859:stop:overlap|stop_codon|ENSG00000158859|stop_codon|NA|stop_codon (ssRNA)
RNA: GGGAGUUCUACAGUCCGACGAUCUGAGGCCCCAGUCAGCACCGCAGGCCAUGCACUGCACAAUUCUAAGAAGCGCCACUACAUAGACUAUGAUGCAAAUGAUGUUCCUGGAGUUGUGUGACAUGGUGCCUUGCCCCAGCCACACAACAGAGGAUUGAGCAUCA
B15: chr1:18907414:18907603:-|3pUTR|ENSG00000169991|msi1|FALSE|unique (ssRNA)
RNA: GGGAGUUCUACAGUCCGACGAUCCCUUGAUUUCCCUGAUAACUUGAUGUUCUUCCCUCCCUCGCCAGCCAACAAUAGAGGCUUAGAGAUCUGUAAUUUCUCUGUGAGAAAGUCUGAAGGGGCCAGGCCUGGUCUCUGCUCCCUCAACAGAGGAUUGAGCAUCA
B16: ENSG00000070961:be:win_751|CDS|ENSG00000070961|bound_else_gene|NA|bound_elsewhere_windowed (ssRNA)
RNA: GGGAGUUCUACAGUCCGACGAUCAAAAAGUCUUUAGAUAAGGAUCCCUUACUUCUAUCAGGUACUCAUGUAAUGGAAGGCUCUGGAAGAAUGGUAGUUACAGCUGUAGGUGUAAAUUCUCAAACUGGAAUUAUCUUUACCUUACAACAGAGGAUUGAGCAUCA
B17: chr1:54216159:54216271:+|CDS|ENSG00000116221|unk|FALSE|unique (ssRNA)
RNA: GGGAGUUCUACAGUCCGACGAUCCUUGGAGCAGCCCGUGGUGGUGCAGAGCGUGGGCACGGAUGGACGUGUCUUCCAUUUCCUAGUGUUUCAACUGAAUACCACAGACCUGGACUGUAACGAGGGUGUCAAGAAUUUGGCCUGCAACAGAGGAUUGAGCAUCA
B18: chr7:127373434:127373542:-|CDS|ENSG00000048405|unk|FALSE|unique (ssRNA)
RNA: GGGAGUUCUACAGUCCGACGAUCAAAACAUAGUGAUUCAAAACAUGAUGGCACUUCUAACUCUCCUAGUAAAAAGUAUGAAGUAGCUGACGUCGGUAUUGAAGUAAAAGUCACAAAAAACUUUUCUCUUCACAGAUGCAAUAACAACAGAGGAUUGAGCAUCA
B19: ENSG00000070961:be:win_4451|3pUTR|ENSG00000070961|bound_else_gene|NA|bound_elsewhere_windowed (ssRNA)
RNA: GGGAGUUCUACAGUCCGACGAUCGUUUUGAAGCAACUGUUUAAUUUUUAAAAUUUUUGAAAACUUGCUAAUAACCUUUUGUUCAGAAUUUAGUAGAUUGUUUAAUGCAGGACAUCAACUACAUAAUGAAAGAUGCUUGAAAUGCAACAGAGGAUUGAGCAUCA
B20: ENSG00000151502:stop:overlap|stop_codon|ENSG00000151502|stop_codon|NA|stop_codon (ssRNA)
RNA: GGGAGUUCUACAGUCCGACGAUCCCACCUCCCUGGGUGAGGUGCGGACCCCCAGCCAGCUGUCUGACAACAACUGCAGGCAGUAGGCCCCCAGGGCCGAGAAGAUGCUGGGCACCCACCCAGCACCCCCAUCUACCAACACCACAACAGAGGAUUGAGCAUCA
B21: ENSG00000109332:stop:overlap|stop_codon|ENSG00000109332|stop_codon|NA|stop_codon (ssRNA)
RNA: GGGAGUUCUACAGUCCGACGAUCCAGACAGAGAUAAGUACAAUAGGUUAGCAAGAGAGUGGACAGAGAAAUACGCUAUGUUGUAGGGUACAACAGAAUAUCUCGGGAAUGGACUCAGAAGUAUGCCAUGUGAUGCUACCUUAACAACAGAGGAUUGAGCAUCA
B22: chr1:154944474:154944574:-|3pUTR|ENSG00000163346|msi1_unk|total|mutant (ssRNA)
RNA: GGGAGUUCUACAGUCCGACGAUCUCGAGGCCCAGCACGAGGACUUACCCUGGGGUUUUGUCCGGUUUGGAAGCAGCUGUCCCCCGGGGGUGAAGUCCCCCCCCUUUUUUUUUUUACCCCUGCUUCUCCCACGGCUUCACCUCCCAACAGAGGAUUGAGCAUCA

This is one part of the list.

The target in this assay is T1, UNK ZnF1-6 (called full-length) (human, UniProt Q9C0B0 30-357).
T1 sequence: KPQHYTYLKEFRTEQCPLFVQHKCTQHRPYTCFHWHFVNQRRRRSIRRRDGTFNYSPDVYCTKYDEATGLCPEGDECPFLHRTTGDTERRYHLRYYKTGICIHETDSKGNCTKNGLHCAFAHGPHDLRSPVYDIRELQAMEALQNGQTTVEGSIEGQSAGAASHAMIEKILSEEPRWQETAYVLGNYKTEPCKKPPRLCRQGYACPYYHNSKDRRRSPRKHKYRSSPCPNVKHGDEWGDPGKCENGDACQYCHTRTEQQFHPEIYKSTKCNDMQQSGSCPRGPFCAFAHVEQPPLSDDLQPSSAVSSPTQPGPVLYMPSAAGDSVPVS
Nature of the assay: nsRBNS (natural sequence RNA bind-n-seq); RBNS binding buffer (assumed for nsRBNS): 25 mM Tris pH 7.5, 150 mM KCl, 3 mM MgCl2, 0.01% Triton X-100, 500 ug/ml BSA, 20 U/ml SUPERase-In, 4 C; UNK is unkempt and MSI1 is Musashi-1; names of the RNAs are library labels; protein concentration not given here; high values mean tight binding.
With B1, the binding signal turned out to be 0.331 enrichment R.
Under B2 stands 0.777 enrichment R.
Under B3 stands 0.832 enrichment R; under B4, 0.65 enrichment R; under B5, 0.72 enrichment R.
Under B6 stands 0.654 enrichment R; under B7, 0.57 enrichment R.
On to B8, for which the binding signal was 1.13 enrichment R.
Regarding B9, the binding signal was 1.03 enrichment R.
Under B10 stands 0.572 enrichment R; under B11, 0.926 enrichment R; under B12, 0.517 enrichment R.
To B13 belongs 0.549 enrichment R.
To B14 belongs 0.629 enrichment R; to B15, 0.912 enrichment R; to B16, 0.459 enrichment R.
The molecule B17 registered a binding signal of 1.2 enrichment R.
Under B18 stands 0.812 enrichment R; under B19, 0.586 enrichment R.
Molecule B20 gave a binding signal of 0.954 enrichment R.
To B21 belongs 0.951 enrichment R; to B22, 1.24 enrichment R.

These data come from publication PMC12136788.
